The source gives no read counts; variants with many changes may rest on few reads.
B1: LINE1-mini (parent)
chain: GGCAGAGCUCAACACAGCGUGGCAAAGUGGCUGUGGCUAGACUGCC

Variants of: B1
Assay: self-cleavage, relative activity (ratio to wild type); higher = more cleavage; in vitro, sequencing; the parent is a self-cleaving ribozyme
With GGCCGAGCUCAACACCACGUGGCAAAGUGGCUGUGGCCAGACUGCC the self-cleavage was 0.04. Variant GGCCGCGCUCAACACAGCGUGGCAAAGUGGCUGUGUCUAGACAGCC has a self-cleavage of 0.01. GGCCGUGCUCAACACAGCGUGGCAAAGUGGCUGUGGCUAGACUGGC gave a self-cleavage of 0.26. GGCCGUGCUCAACACAGCGUGGCAAAGUGACUGUGGCUAGACUGCC gave a self-cleavage of 0.01. Work on GGUAGAGCUCAACACAGCGUGGCAAAGUGGCUGUGGCUAGACGGCU yielded a self-cleavage of 0.01. GGCCGUGCUCAACACAGCGUGGCAAAGUGGCUGUGGCUCGACUGAC showed a self-cleavage of 0.03. With GGUAGAGCUCAACACAGCGCGGCAAAGUGGCUGUGGCUAGACUGGC the self-cleavage was 0.27. For GGUAGAGCUCAACACAGCGCGGCAAAGUGGCUGUGGCUAGACUGUC, the self-cleavage was 0.05. GGUAGAGCUCAACACAGCGAGGCAAAGUGGCGAUGGCUAGACUGCC showed a self-cleavage of 0.04. With GGCCGCGCUUAACACAGCGUGGUAAAGUGGCUGUGGCUAGACUGCC the self-cleavage was 0.06. Variant GGCCGAGCUCAACACCUCGUGGCAAAGUGGCUGUGGCUUGACUGCC has a self-cleavage of 0.08. Work on GGCCGAGCUCCACACAGCGUGGCAAAGUGGCUGUGGCUGGACUGCC yielded a self-cleavage of 0.04. In the case of GGUAGAGCUCAACACAGCGUGGCAAAGUGGCUGUGGCUAGACAUCC, the self-cleavage is reported as 0.16. For GGUAGAGCUCAACACAGCGUGGCAAAGUGGCUGUGGCAAGAUUGCC, the self-cleavage was 0.37. In the case of GGCCGCCCUCCACACAGCGUGGCAAAGUGGCUGAGGCUAGACUCUC, the self-cleavage is reported as 0. In the case of GGUAGAGCUCAACACAGCGUGGCAAAGAGGCUGUGGCUAGUCUGCC, the self-cleavage is reported as 0.52. GGCCGAGCUCAACACCGCAGGGCAAACUGGCUGUGGCUAGUCUGCC showed a self-cleavage of 0.09. For GGCCGAGCUCAUCACACCGUGACAAAGUGGCUGUGGCUAGACUUUC, the self-cleavage was 0.2. With GGUAGAGCUCAACACAGCGGGGCAACGUGGCUGUGGCUAGACUGCC the self-cleavage was 0.09. In the case of GGCCGAGCUCAACGCAGCGUGGCAAAGUGGCUGUGGCUAUACUGCC, the self-cleavage is reported as 0.15. GGCCGAGCUCAACACAGCGUGGCCAAGUGGCUGUGGCUAUACUGCC gave a self-cleavage of 0.05. Variant GGUAGAGCUCAACACAGCGUGGCAAAGGGGAUGUGGCUAGACUGCC has a self-cleavage of 0.02. GGCCGAGCUCAGCACAGCGUAGCAAAGUGGCUGUGGCUAUACUGCC gave a self-cleavage of 0.02. GGCCGCGCUCUACACAGCGUGGCAAAGUGGAUCUGGCUAUACUGCC gave a self-cleavage of 0. Work on GGUAGAGCUCAACACAGCGUGGCAAAGCGGCUGUGUCUAGGCUGCC yielded a self-cleavage of 0.19. GGCCGAGCUCAACUCAGUGUGGCAAAGUGGCUGUGGCUAGACUGCC gave a self-cleavage of 0.18. GGUAGAGCUCAACACAGCGUGGCAAAGUGGCCGGGGCUAGACUGCC gave a self-cleavage of 0.02. Work on GGUAGAGCUCAACACAGCGUGGCAAAGUGGCUGUGGCAAGACUGCG yielded a self-cleavage of 0.03. In the case of GGUAGAGCUCAACACAGCGACCCAAAGUGGCUGUGGCUAGACUGCC, the self-cleavage is reported as 0.17. With GGCCGAGCUCAACACCGCGUGGCAAAGUGGCUGUUGCUAGAGUGCC the self-cleavage was 0.04. Work on GGCCGAGCUCAACACGUCGUCGCAAAGUGGCUGUGGCUAGCCUGCA yielded a self-cleavage of 0.06. With GGUAGAGCGCAACCCAGCGUUGCAAUGUGCCUGUGGCUAGACUGCC the self-cleavage was 0.01. In the case of GGCCGAGCUCAACACGGCGUAGCAAAGCGGCUGUGGCUAGACUGCC, the self-cleavage is reported as 0.25. In the case of GGCCGAGCUCAACUCAGCUUGGCCAAAUCGCUGUGGCUAAACUGCC, the self-cleavage is reported as 0.02. Variant GGCCGAGCUCAACGCAGCGUGGCAAAGUGGCUGUGGCUAGAUAGCC has a self-cleavage of 0.26. With GGCCGAGCUCAUCCCAGCGUGGCGAAGUGGGUGUGGCUAGACUGCC the self-cleavage was 0.02. GGCCGAGCUCUACACAGCCCGGCAAAGUGGUUGUGGCUAGCCUUCC gave a self-cleavage of 0.01. Work on GGCCGAGCUCCUCACAGCGUUGCAAAGUGGCUGUGGCUCGACUGCC yielded a self-cleavage of 0.02. GGCCGAGCUCAUCACAGCGUGGCCAAGAGGCUGUGGCUAGACUGCC gave a self-cleavage of 0.05. Variant GGCCGAGCUCGACACAGCGUGGCAAAGUGGCUGUGGCAAGACUGCC has a self-cleavage of 0.04. With GGCCGAGCUCAACUCAGCGUGGCAAACUGGCUGUGGCUAGACUGCC the self-cleavage was 0.65. With GGCCGUGCUCAACACAGCGUGGCAAAGUGGCUGUGACUAGACUGCC the self-cleavage was 0.15. GGCCGAGCUCACCACAGCGUGGUAAAGUGGCUGUGGCUAGACUGCC gave a self-cleavage of 0. For GGCCGAGCUCAACACCGCGUGGCAAAGUCGCUGUGGCUAGACUGCC, the self-cleavage was 0.09. With GGCCGAGCUCAACACAGCGUGGCGAAGUGGCUGUGGCUAGAAUGCC the self-cleavage was 0.28. Work on GGUAGAGCGCAACACAGCGUGUCAAAGUGGCUGUGGCUAGACUGCC yielded a self-cleavage of 0.07. In the case of GGCCGAGCUCAACACUGCGUGUCAAAGUGUCUGUGGCUAGACUGCC, the self-cleavage is reported as 0.27. In the case of GGUAGAGCUCAACACAGCGUGGCAAAGGGGCUGUGGCUAGACUUCC, the self-cleavage is reported as 0.13. Work on GGUAGAGCUCAACACAGCGUGGCAAAGGGGCUGUGGCUAGUCUGCC yielded a self-cleavage of 0.27. In the case of GGUAGAGCUCAACACAGCGUGGCAAAGUGGCGGUGGCUAGACUGUC, the self-cleavage is reported as 0.06. GGUAGAGCUCAACACAGCGCGGCAACGUGGCUGUGGCUAGACUGCC gave a self-cleavage of 0.06. GGCCGAGCUCGACACAGCGUGGCUAAGUGGCUCUGGCUAGACUGCC showed a self-cleavage of 0.02. GGCCGAGCUCACCACAGCGUGGCAAAAUGGCUGUGGCUAGAUUUCC showed a self-cleavage of 0.01. Variant GGCCGAGCUCAUCACAGAGUGGCAAAGUGGCUGUGGCUAGACUGCC has a self-cleavage of 0.01. In the case of GGCCGGGCUCAACACAGCGUGGCAAAGGGGCUGUGGCUAGACUGCC, the self-cleavage is reported as 0. Variant GGCCGAGCUCAACACCGCGUGGCAACGUGGCUGUGGCUAGACUGCC has a self-cleavage of 0.47.
